From the supplement of paper PMC8728848
Some of the results follow.

Tests used:
Test in all cases: glycan array binding signal (z-score within array); higher = stronger binding
Settings in all cases: glycan notation: IUPAC condensed, linker removed
[1] = molecular target: Fuc(a1-2)[GalNAc(a1-3)]Gal(b1-3)GlcNAc(b1-3)GalNAc
Outline: (§1)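 Columns mapping to the same glycan were averaged after glycan names were converted to IUPAC-condensed notation. The data come from 3228 arrays in the Consortium for Functional Glycomics database, limited to those with an available protein sequence. Binding is reported as a within-array Z-score averaged across arrays of one protein sequence and across linkers.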

[2] = molecular target: Fuc(a1-2)[GalNAc(a1-3)]Gal(b1-3)GlcNAc(b1-6)GalNAc
Outline: as §1

[3] = molecular target: Fuc(a1-2)[GalNAc(a1-3)]Gal(b1-4)Glc
Outline: as §1

[4] = molecular target: Fuc(a1-2)[GalNAc(a1-3)]Gal(b1-4)GlcNAc
Outline: as §1

[5] = molecular target: Fuc(a1-2)[GalNAc(a1-3)]Gal(b1-4)GlcNAc(b1-2)Man
Outline: as §1

[6] = molecular target: Fuc(a1-2)[GalNAc(a1-3)]Gal(b1-4)GlcNAc(b1-2)Man(a1-3)[Fuc(a1-2)[GalNAc(a1-3)]Gal(b1-4)GlcNAc(b1-2)Man(a1-6)]Man(b1-4)GlcNAc(b1-4)GlcNAc
Outline: as §1

[7] = molecular target: Fuc(a1-2)[GalNAc(a1-3)]Gal(b1-4)GlcNAc(b1-2)Man(a1-3)[Fuc(a1-2)[GalNAc(a1-3)]Gal(b1-4)GlcNAc(b1-2)Man(a1-6)]Man(b1-4)GlcNAc(b1-4)[Fuc(a1-6)]GlcNAc
Outline: as §1

[8] = molecular target: Fuc(a1-2)[GalNAc(a1-3)]Gal(b1-4)GlcNAc(b1-3)Gal(b1-4)GlcNAc
Outline: as §1

[9] = molecular target: Fuc(a1-2)[GalNAc(a1-3)]Gal(b1-4)GlcNAc(b1-3)Gal(b1-4)GlcNAc(b1-3)Gal(b1-4)GlcNAc
Outline: as §1

[10] = molecular target: Fuc(a1-2)[GalNAc(a1-3)]Gal(b1-4)GlcNAc(b1-3)GalNAc
Outline: as §1

[11] = molecular target: Fuc(a1-2)[GalNAc(a1-3)]Gal(b1-4)GlcNAc(b1-3)[Fuc(a1-2)[GalNAc(a1-3)]Gal(b1-4)GlcNAc(b1-6)]GalNAc
Outline: as §1

[12] = molecular target: Fuc(a1-2)[GalNAc(a1-3)]Gal(b1-4)GlcNAc(b1-6)GalNAc
Outline: as §1

[13] = molecular target: Fuc(a1-2)[GalNAc(a1-3)]Gal(b1-4)[Fuc(a1-3)]GlcNAc
Outline: as §1

[14] = molecular target: Fuc(a1-2)[GalNAc(a1-3)]Gal(b1-4)[Fuc(a1-3)]GlcNAc(b1-3)GalNAc
Outline: as §1

[15] = molecular target: Fuc(a1-2)[GalNAc(a1-4)]Gal(b1-4)GlcNAc
Outline: as §1

[16] = molecular target: Fuc(a1-2)[GalNAc(b1-3)]Gal
Outline: as §1

Fuc(a1-3)GlcNAc = molecular target: Fuc(a1-3)GlcNAc
Outline: as §1

[17] = molecular target: Fuc(a1-3)[Gal(b1-4)]Glc6S
Outline: as §1

[18] = molecular target: Fuc(a1-3)[Gal(b1-4)]GlcNAc
Outline: as §1

[19] = molecular target: Fuc(a1-3)[Gal(b1-4)]GlcNAc(b1-2)Man
Outline: as §1

[20] = molecular target: Fuc(a1-3)[Gal(b1-4)]GlcNAc(b1-2)Man(a1-3)[Fuc(a1-3)[Gal(b1-4)]GlcNAc(b1-2)Man(a1-6)]Man(b1-4)GlcNAc(b1-4)GlcNAc
Outline: as §1

[21] = molecular target: Fuc(a1-3)[Gal(b1-4)]GlcNAc(b1-2)Man(a1-3)[Fuc(a1-3)[Gal(b1-4)]GlcNAc(b1-2)Man(a1-6)]Man(b1-4)GlcNAc(b1-4)[Fuc(a1-6)]GlcNAc
Outline: as §1

[22] = molecular target: Fuc(a1-3)[Gal(b1-4)]GlcNAc(b1-3)Gal(b1-3)[Fuc(a1-4)]GlcNAc
Outline: as §1

[23] = molecular target: Fuc(a1-3)[Gal(b1-4)]GlcNAc(b1-3)Gal(b1-4)[Fuc(a1-3)]GlcNAc
Outline: as §1

[24] = molecular target: Fuc(a1-3)[Gal(b1-4)]GlcNAc(b1-3)Gal(b1-4)[Fuc(a1-3)]GlcNAc(b1-3)Gal(b1-4)[Fuc(a1-3)]GlcNAc
Outline: as §1

[25] = molecular target: Fuc(a1-3)[Gal(b1-4)]GlcNAc(b1-3)GalNAc
Outline: as §1

[26] = molecular target: Fuc(a1-3)[Gal(b1-4)]GlcNAc(b1-6)GalNAc
Outline: as §1

[27] = molecular target: Fuc(a1-3)[Gal(b1-4)]GlcNAc(b1-6)[Gal(b1-3)GlcNAc(b1-3)]Gal(b1-4)Glc
Outline: as §1

[28] = molecular target: Fuc(a1-3)[Gal(b1-4)]GlcNAc6S
Outline: as §1

[29] = molecular target: Fuc(a1-3)[Gal3S(b1-4)]Glc
Outline: as §1

[30] = molecular target: Fuc(a1-3)[Gal3S(b1-4)]GlcNAc
Outline: as §1

[31] = molecular target: Fuc(a1-3)[Gal3S(b1-4)]GlcNAc6S
Outline: as §1

[32] = molecular target: Fuc(a1-3)[GalNAc(b1-4)]GlcNAc
Outline: as §1

[33] = molecular target: Fuc(a1-3)[GalNAc(b1-4)]GlcNAc6S
Outline: as §1

Fuc(a1-4)GlcNAc = molecular target: Fuc(a1-4)GlcNAc
Outline: as §1

Fuc(b1-3)GlcNAc = molecular target: Fuc(b1-3)GlcNAc
Outline: as §1

Gal(a1-2)Gal = molecular target: Gal(a1-2)Gal
Outline: as §1

B1: LFA (Limax flavus) (protein)
chain: MSVLFLAASFLLLASFELVAAQGCPRQDPGDWIVIQRRLNADVNFYRGWADYKHGFGDLRCNFWLGNEKIHQLTSHGRYKLRVEFTFNNKSYFAEYSTFKILGEADKYKLQVGGYSGNAGDALTFHNGMAFSTNDRDNDADSIDCAKVYHGAWWYKTCHESNLNGKWGSKKYGEGLNWKAKTTFTATATSSLLKIKALK
glycan array binding signal (z-score) [1]: -0.243
glycan array binding signal (z-score) [2]: -0.175
glycan array binding signal (z-score) [3]: -0.03
glycan array binding signal (z-score) [4]: -0.171
glycan array binding signal (z-score) [5]: -0.358
glycan array binding signal (z-score) [6]: -0.018
glycan array binding signal (z-score) [7]: -0.14
glycan array binding signal (z-score) [8]: -0.192
glycan array binding signal (z-score) [9]: 0.433
glycan array binding signal (z-score) [10]: -0.224
glycan array binding signal (z-score) [11]: -0.241
glycan array binding signal (z-score) [12]: -0.293
glycan array binding signal (z-score) [13]: 0.032
glycan array binding signal (z-score) [14]: -0.214
glycan array binding signal (z-score) [15]: 3.52
glycan array binding signal (z-score) [16]: -0.163
glycan array binding signal (z-score) (Fuc(a1-3)GlcNAc): -0.259
glycan array binding signal (z-score) [17]: -0.024
glycan array binding signal (z-score) [18]: -0.221
glycan array binding signal (z-score) [19]: -0.316
glycan array binding signal (z-score) [20]: -0.239
glycan array binding signal (z-score) [21]: -0.15
glycan array binding signal (z-score) [22]: -0.063
glycan array binding signal (z-score) [23]: -0.217
glycan array binding signal (z-score) [24]: -0.149
glycan array binding signal (z-score) [25]: -0.224
glycan array binding signal (z-score) [26]: -0.138
glycan array binding signal (z-score) [27]: -0.335
glycan array binding signal (z-score) [28]: -0.219
glycan array binding signal (z-score) [29]: -0.271
glycan array binding signal (z-score) [30]: 0.171
glycan array binding signal (z-score) [31]: -0.362
glycan array binding signal (z-score) [32]: -0.311
glycan array binding signal (z-score) [33]: -0.349
glycan array binding signal (z-score) (Fuc(a1-4)GlcNAc): -0.263
glycan array binding signal (z-score) (Fuc(b1-3)GlcNAc): -0.288
glycan array binding signal (z-score) (Gal(a1-2)Gal): -0.306
